Results published in the supplement of paper PMC8728848.
Some of the results follow.

Columns and labels:
Assay in all cases: glycan array binding signal (z-score within array); higher = stronger binding
Settings in all cases: glycan notation: IUPAC condensed, linker removed
[1] = biological target: Neu5Ac(a2-3)Gal(b1-3)GalNAc6S
Procedure, shortened: (§1)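 The binding signal is a Z-score computed within each array and averaged over linkers. Arrays of the same protein sequence at different concentrations or buffers were also averaged together. Data originate from 3228 arrays in the Consortium for Functional Glycomics database, kept only where the protein sequence was available.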

[2] = biological target: Neu5Ac(a2-3)Gal(b1-3)GlcNAc
Procedure, shortened: as §1

[3] = biological target: Neu5Ac(a2-3)Gal(b1-3)GlcNAc(b1-2)Man
Procedure, shortened: as §1

[4] = biological target: Neu5Ac(a2-3)Gal(b1-3)GlcNAc(b1-2)Man(a1-3)[GlcNAc(b1-4)][Neu5Ac(a2-3)Gal(b1-3)GlcNAc(b1-2)Man(a1-6)]Man(b1-4)GlcNAc(b1-4)GlcNAc
Procedure, shortened: as §1

[5] = biological target: Neu5Ac(a2-3)Gal(b1-3)GlcNAc(b1-2)Man(a1-3)[Neu5Ac(a2-3)Gal(b1-3)GlcNAc(b1-2)Man(a1-6)]Man(b1-4)GlcNAc(b1-4)GlcNAc
Procedure, shortened: as §1

[6] = biological target: Neu5Ac(a2-3)Gal(b1-3)GlcNAc(b1-3)Gal(b1-3)GlcNAc
Procedure, shortened: as §1

[7] = biological target: Neu5Ac(a2-3)Gal(b1-3)GlcNAc(b1-3)Gal(b1-4)GlcNAc
Procedure, shortened: as §1

[8] = biological target: Neu5Ac(a2-3)Gal(b1-3)GlcNAc(b1-3)GalNAc
Procedure, shortened: as §1

[9] = biological target: Neu5Ac(a2-3)Gal(b1-3)GlcNAc(b1-4)Gal(b1-4)Glc
Procedure, shortened: as §1

[10] = biological target: Neu5Ac(a2-3)Gal(b1-3)GlcNAc(b1-6)GalNAc
Procedure, shortened: as §1

[11] = biological target: Neu5Ac(a2-3)Gal(b1-3)GlcNAc6S
Procedure, shortened: as §1

[12] = biological target: Neu5Ac(a2-3)Gal(b1-3)[Fuc(a1-4)]GlcNAc
Procedure, shortened: as §1

[13] = biological target: Neu5Ac(a2-3)Gal(b1-3)[Fuc(a1-4)]GlcNAc(b1-3)Gal(b1-3)[Fuc(a1-4)]GlcNAc
Procedure, shortened: as §1

[14] = biological target: Neu5Ac(a2-3)Gal(b1-3)[Fuc(a1-4)]GlcNAc(b1-3)Gal(b1-4)[Fuc(a1-3)]GlcNAc
Procedure, shortened: as §1

[15] = biological target: Neu5Ac(a2-3)Gal(b1-3)[GlcNAc(b1-6)]GalNAc
Procedure, shortened: as §1

[16] = biological target: Neu5Ac(a2-3)Gal(b1-3)[Neu5Ac(a2-3)Gal(b1-4)]GlcNAc
Procedure, shortened: as §1

[17] = biological target: Neu5Ac(a2-3)Gal(b1-3)[Neu5Ac(a2-6)]GalNAc
Procedure, shortened: as §1

[18] = biological target: Neu5Ac(a2-3)Gal(b1-3)[Neu5Ac(a2-6)]GlcNAc(b1-3)[Fuc(a1-3)[Gal(b1-4)]GlcNAc(b1-6)]Gal(b1-4)Glc
Procedure, shortened: as §1

[19] = biological target: Neu5Ac(a2-3)Gal(b1-3)]Neu5Ac(a2-3)Gal(b1-4)]GlcNAc
Procedure, shortened: as §1

Neu5Ac(a2-3)Gal(b1-4)Glc = biological target: Neu5Ac(a2-3)Gal(b1-4)Glc
Procedure, shortened: as §1

[20] = biological target: Neu5Ac(a2-3)Gal(b1-4)GlcNAc
Procedure, shortened: as §1

[21] = biological target: Neu5Ac(a2-3)Gal(b1-4)GlcNAc(b1-2)Man
Procedure, shortened: as §1

[22] = biological target: Neu5Ac(a2-3)Gal(b1-4)GlcNAc(b1-2)Man(a1-3)[GlcNAc(b1-4)][Neu5Ac(a2-3)Gal(b1-4)GlcNAc(b1-2)Man(a1-6)]Man(b1-4)GlcNAc(b1-4)GlcNAc
Procedure, shortened: as §1

[23] = biological target: Neu5Ac(a2-3)Gal(b1-4)GlcNAc(b1-2)Man(a1-3)[Neu5Ac(a2-3)Gal(b1-4)GlcNAc(b1-2)Man(a1-6)]Man(b1-4)GlcNAc(b1-4)GlcNAc
Procedure, shortened: as §1

[24] = biological target: Neu5Ac(a2-3)Gal(b1-4)GlcNAc(b1-2)Man(a1-3)[Neu5Ac(a2-3)Gal(b1-4)GlcNAc(b1-2)Man(a1-6)]Man(b1-4)GlcNAc(b1-4)[Fuc(a1-6)]GlcNAc
Procedure, shortened: as §1

[25] = biological target: Neu5Ac(a2-3)Gal(b1-4)GlcNAc(b1-2)Man(a1-3)[Neu5Ac(a2-6)Gal(b1-4)GlcNAc(b1-2)Man(a1-6)]Man(b1-4)GlcNAc(b1-4)GlcNAc
Procedure, shortened: as §1

[26] = biological target: Neu5Ac(a2-3)Gal(b1-4)GlcNAc(b1-2)[Neu5Ac(a2-3)Gal(b1-4)GlcNAc(b1-4)]Man(a1-3)[GlcNAc(b1-4)][Neu5Ac(a2-3)Gal(b1-4)GlcNAc(b1-2)[Neu5Ac(a2-3)Gal(b1-4)GlcNAc(b1-6)]Man(a1-6)]Man(b1-4)GlcNAc(b1-4)GlcNAc
Procedure, shortened: as §1

[27] = biological target: Neu5Ac(a2-3)Gal(b1-4)GlcNAc(b1-2)[Neu5Ac(a2-3)Gal(b1-4)GlcNAc(b1-4)]Man(a1-3)[GlcNAc(b1-4)][Neu5Ac(a2-3)Gal(b1-4)GlcNAc(b1-4)Man(a1-6)]Man(b1-4)GlcNAc(b1-4)GlcNAc
Procedure, shortened: as §1

[28] = biological target: Neu5Ac(a2-3)Gal(b1-4)GlcNAc(b1-2)[Neu5Ac(a2-3)Gal(b1-4)GlcNAc(b1-6)]Man(a1-6)[Neu5Ac(a2-3)Gal(b1-4)GlcNAc(b1-2)Man(a1-3)]Man(b1-4)GlcNAc(b1-4)GlcNAc
Procedure, shortened: as §1

[29] = biological target: Neu5Ac(a2-3)Gal(b1-4)GlcNAc(b1-2)[Neu5Ac(a2-3)Gal(b1-4)GlcNAc(b1-6)]Man(a1-6)[Neu5Ac(a2-3)Gal(b1-4)GlcNAc(b1-2)Man(a1-3)][GlcNAc(b1-4)]Man(b1-4)GlcNAc(b1-4)GlcNAc
Procedure, shortened: as §1

[30] = biological target: Neu5Ac(a2-3)Gal(b1-4)GlcNAc(b1-3)Gal
Procedure, shortened: as §1

[31] = biological target: Neu5Ac(a2-3)Gal(b1-4)GlcNAc(b1-3)Gal(b1-3)GlcNAc
Procedure, shortened: as §1

[32] = biological target: Neu5Ac(a2-3)Gal(b1-4)GlcNAc(b1-3)Gal(b1-4)GlcNAc
Procedure, shortened: as §1

[33] = biological target: Neu5Ac(a2-3)Gal(b1-4)GlcNAc(b1-3)Gal(b1-4)GlcNAc(b1-2)Man(a1-3)[Neu5Ac(a2-3)Gal(b1-4)GlcNAc(b1-3)Gal(b1-4)GlcNAc(b1-2)Man(a1-6)]Man(b1-4)GlcNAc(b1-4)GlcNAc
Procedure, shortened: as §1

[34] = biological target: Neu5Ac(a2-3)Gal(b1-4)GlcNAc(b1-3)Gal(b1-4)GlcNAc(b1-3)Gal(b1-4)GlcNAc
Procedure, shortened: as §1

[35] = biological target: Neu5Ac(a2-3)Gal(b1-4)GlcNAc(b1-3)Gal(b1-4)GlcNAc(b1-3)Gal(b1-4)GlcNAc(b1-2)Man(a1-3)[Neu5Ac(a2-3)Gal(b1-4)GlcNAc(b1-3)Gal(b1-4)GlcNAc(b1-3)Gal(b1-4)GlcNAc(b1-2)Man(a1-6)]GalNAc
Procedure, shortened: as §1

[36] = biological target: Neu5Ac(a2-3)Gal(b1-4)GlcNAc(b1-3)Gal(b1-4)GlcNAc(b1-3)GalNAc
Procedure, shortened: as §1

[37] = biological target: Neu5Ac(a2-3)Gal(b1-4)GlcNAc(b1-3)Gal(b1-4)GlcNAc(b1-3)[Neu5Ac(a2-3)Gal(b1-4)GlcNAc(b1-3)Gal(b1-4)GlcNAc(b1-6)]GalNAc
Procedure, shortened: as §1

[38] = biological target: Neu5Ac(a2-3)Gal(b1-4)GlcNAc(b1-3)Gal(b1-4)GlcNAc(b1-6)[Gal(b1-3)]GalNAc
Procedure, shortened: as §1

[39] = biological target: Neu5Ac(a2-3)Gal(b1-4)GlcNAc(b1-3)Gal(b1-4)[Fuc(a1-3)]GlcNAc
Procedure, shortened: as §1

[40] = biological target: Neu5Ac(a2-3)Gal(b1-4)GlcNAc(b1-3)GalNAc
Procedure, shortened: as §1

[41] = biological target: Neu5Ac(a2-3)Gal(b1-4)GlcNAc(b1-3)[Neu5Ac(a2-3)Gal(b1-4)GlcNAc(b1-6)]GalNAc
Procedure, shortened: as §1

[42] = biological target: Neu5Ac(a2-3)Gal(b1-4)GlcNAc(b1-6)GalNAc
Procedure, shortened: as §1

[43] = biological target: Neu5Ac(a2-3)Gal(b1-4)GlcNAc(b1-6)[Gal(b1-3)]GalNAc
Procedure, shortened: as §1

[44] = biological target: Neu5Ac(a2-3)Gal(b1-4)GlcNAc(b1-6)[Neu5Ac(a2-3)Gal(b1-3)]GalNAc
Procedure, shortened: as §1

B1: SJA (Sophora japonica) (protein)
chain: FLGLFNSGGYSSSYQIVAVEFDTYINEWDPKTRHIGIDINSINSTKTVTWGWENGEVAIVLISYKAATETLTVSLTYPSSQTSYILSAAVDLKSILPEWVRIGF
[1]
  glycan array binding signal (z-score): -0.268
[2]
  glycan array binding signal (z-score): -0.139
[3]
  glycan array binding signal (z-score): -0.114
[4]
  glycan array binding signal (z-score): -0.271
[5]
  glycan array binding signal (z-score): -0.041
[6]
  glycan array binding signal (z-score): -0.369
[7]
  glycan array binding signal (z-score): -0.131
[8]
  glycan array binding signal (z-score): -0.171
[9]
  glycan array binding signal (z-score): -0.315
[10]
  glycan array binding signal (z-score): -0.305
[11]
  glycan array binding signal (z-score): 0.007
[12]
  glycan array binding signal (z-score): -0.315
[13]
  glycan array binding signal (z-score): 0.035
[14]
  glycan array binding signal (z-score): -0.219
[15]
  glycan array binding signal (z-score): -0.156
[16]
  glycan array binding signal (z-score): -0.179
[17]
  glycan array binding signal (z-score): -0.144
[18]
  glycan array binding signal (z-score): -0.162
[19]
  glycan array binding signal (z-score): -0.446
Neu5Ac(a2-3)Gal(b1-4)Glc
  glycan array binding signal (z-score): -0.124
[20]
  glycan array binding signal (z-score): -0.241
[21]
  glycan array binding signal (z-score): -0.196
[22]
  glycan array binding signal (z-score): -0.309
[23]
  glycan array binding signal (z-score): 0.029
[24]
  glycan array binding signal (z-score): -0.101
[25]
  glycan array binding signal (z-score): -0.256
[26]
  glycan array binding signal (z-score): -0.432
[27]
  glycan array binding signal (z-score): -0.125
[28]
  glycan array binding signal (z-score): -0.494
[29]
  glycan array binding signal (z-score): -0.118
[30]
  glycan array binding signal (z-score): -0.375
[31]
  glycan array binding signal (z-score): 0.02
[32]
  glycan array binding signal (z-score): -0.172
[33]
  glycan array binding signal (z-score): 0.783
[34]
  glycan array binding signal (z-score): -0.183
[35]
  glycan array binding signal (z-score): 3.51
[36]
  glycan array binding signal (z-score): -0.357
[37]
  glycan array binding signal (z-score): -0.296
[38]
  glycan array binding signal (z-score): 0.183
[39]
  glycan array binding signal (z-score): -0.152
[40]
  glycan array binding signal (z-score): -0.231
[41]
  glycan array binding signal (z-score): -0.202
[42]
  glycan array binding signal (z-score): -0.331
[43]
  glycan array binding signal (z-score): -0.206
[44]
  glycan array binding signal (z-score): -0.306
